Measured values published in PubChem BioAssay AID1159614 (National Center for Advancing Translational Sciences (NCATS), 2016).
Hit rate of the full screen: of about 45,000 compounds, about 65 (0.1%) were called active. The call rests on the fitted dose curve; in most records, active means well fitted activation curve with a large enough effect; inconclusive means small, poorly fitted or top-dose-only effect; inactive means no such curve, though single readings can be large or run the other way. The list shows a part of the results.

Target: Galactocerebrosidase (Homo sapiens) (UniProt P54803)
Chain of UniProt P54803 (P54803 whole entry, looked up): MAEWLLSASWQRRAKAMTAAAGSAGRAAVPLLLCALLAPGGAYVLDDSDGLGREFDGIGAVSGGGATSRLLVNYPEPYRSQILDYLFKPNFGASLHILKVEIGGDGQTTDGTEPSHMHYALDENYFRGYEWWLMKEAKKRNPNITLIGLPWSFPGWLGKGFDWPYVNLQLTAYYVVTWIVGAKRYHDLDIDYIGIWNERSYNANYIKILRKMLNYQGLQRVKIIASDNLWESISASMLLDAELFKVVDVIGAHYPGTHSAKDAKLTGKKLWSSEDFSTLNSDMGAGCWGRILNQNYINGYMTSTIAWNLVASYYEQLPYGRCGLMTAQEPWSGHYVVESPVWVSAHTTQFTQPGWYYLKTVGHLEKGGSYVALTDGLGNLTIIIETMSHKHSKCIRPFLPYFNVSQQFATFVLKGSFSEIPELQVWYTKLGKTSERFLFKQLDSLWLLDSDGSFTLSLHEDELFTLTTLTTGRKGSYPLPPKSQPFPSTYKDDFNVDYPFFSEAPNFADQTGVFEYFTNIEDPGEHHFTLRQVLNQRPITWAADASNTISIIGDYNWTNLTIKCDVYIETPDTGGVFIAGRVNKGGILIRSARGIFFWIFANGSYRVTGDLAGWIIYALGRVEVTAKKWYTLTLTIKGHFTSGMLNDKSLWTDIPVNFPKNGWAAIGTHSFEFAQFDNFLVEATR
Test: A Novel Cell-Based Assay to Identify Small Molecules for B -Galactocerebrosidase; further: 0% is about no effect; nearly all actives have a fitted effect of over 65% in size
Conditions: 145M-Twi-hGALC-G270D cells (Twitcher mouse brain line with human GALC G270D), HMU-beta-Gal fluorescence, 48 h; series mostly up to 57.5 µM; activation: at the top concentration
Outline: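 Brain-derived Twitcher mouse 145M-Twi cells stably expressing human GALC-G270D or wild-type GALC, treated live, then residual GALC activity read by fluorescence of HMU-b-Gal substrate (0.1 mM final) in citrate-phosphate buffer pH 5.2 with sodium taurocholate. Signal increase indicates enhancement.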

activation, inactive:
COc1ccccc1N1CCN(c2c3c(nc4nncn24)CCC3)CC1 5.31%
CC(C)(C)NC(=O)Cn1cc(S(=O)(=O)Cc2ccccc2Cl)c2ccccc21 -10.3%
Cc1cccc(-n2c(=O)c3c(c4cc(C)ccc4n3C)n(CC(=O)Nc3ccc(C)c(C)c3)c2=O)c1 -0.717%
C#CCN(C)CCCOc1ccc(Cl)cc1Cl -5.04%
COc1ccc(-c2nc(SCC(=O)NCC3CCCO3)c(-c3ccc(C)cc3)[nH]2)cc1OC (configuration not stated) -17.9%
COc1ccc(C)cc1NS(=O)(=O)c1ccc2c(c1)CCCN2C(C)=O -16.9%
O=C(O)CN(CCN(CC(=O)O)CC(=O)O)CCN(CC(=O)O)CC(=O)O -10.1% [at 23.8 µM]
Cc1ccc(N(C)S(=O)(=O)c2nnc(NC(=O)c3ccco3)s2)cc1 0.892%
COc1ccc(-c2c(C#N)c(SCC(=O)Nc3ccc(C)c(C)c3)nc(C)c2C(=O)Nc2ccccc2)cc1OC -2.47%
COc1ccc(NC(=O)N2CCN(Cc3nc4ccc(C)cc4o3)CC2)cc1OC -17.4%
CCCCNC(=O)CN1CCN(c2ccc(NC(=O)c3ccc(OC)cc3)cc2C(=O)O)CC1 -0.998%
Cc1nc(-c2ccccc2)sc1-c1ccc(SCC(=O)Nc2ccccc2)nn1 -8.3%
Cc1oc(-c2cccc(Br)c2)nc1CN1CCC(C(=O)NCc2ccccc2)CC1 -6.48%
Cc1ccc(NC(=O)c2ccc(F)c(S(=O)(=O)NCCc3ccccc3)c2)cc1F -16%
COCCn1c(CCC(=O)Nc2ccc(OC)c(OC)c2)nc2cccnc21 -11.8%
O=C(NCc1ccccc1Cl)c1cc(-c2ccccc2)n[nH]1 -14.8%
O=C(Cn1c2ncccc2c(=O)n1-c1ccccc1)NCc1ccccc1 -20.1%
O=C(CS(=O)(=O)c1nc(-c2ccc(Cl)cc2)cn1-c1ccccc1)Nc1cccc(Cl)c1 -44.4%
Cc1cc(C)cc(NC(=O)CSc2nccn2C2CCCC2)c1 -5.2%
COc1cccc(NC(=O)c2csc3c2CCCCC3)c1 -8.5%
CCc1ccc(NC(=O)N2CCN(c3nnc(C)c4c(C)n(-c5ccc(Cl)cc5)nc34)CC2)cc1 -27.1%
COc1cccc(CNC(=O)Cc2c(C)c3cc4c(C)coc4cc3oc2=O)c1 -3.67%
COc1cccc(C2C(C(N)=O)=C(C)Nc3nc(CCCO)nn32)c1 (configuration not stated) -5.05%
CCN1C(=O)c2ccccc2Sc2ccc(NC(=O)Cc3ccc(OC)c(OC)c3)cc21 -11.8%
COc1ccc2c(c1)c(=O)c(S(=O)(=O)c1ccc(F)cc1)cn2CC(=O)Nc1ccc(C)cc1C -4.24%
CCOc1cccc(CC(=O)NCc2ccc3c(c2)CCN3C(=O)c2cccc(C)c2)c1OCC -22.4%
COc1cc(NS(=O)(=O)c2ccc(NC(=O)COc3ccc(Cl)cc3Cl)cc2)nc(OC)n1 -11.5%
COc1ccc(CN(C(=O)Nc2cc(C)ccc2C)C2CCN(C(C)=O)CC2)cc1 -9.97%
Cc1ccc(CNCc2ccc3c(c2)n(C)c(=O)n3C)cc1 -13.9%
O=C(CCNS(=O)(=O)c1ccc(Br)s1)Nc1ccc(Br)cc1 -10.9%
c1ccc(Nc2c(-c3ccccc3)nc3ncccn23)cc1 -4.16%
CCC(CC)C(=O)N1CCc2cc(OC)c(OC)cc2C1COc1ccc2c(C)cc(=O)oc2c1 (configuration not stated) -16.5%
O=C(c1cc(S(=O)(=O)N2CCCC2)c[nH]1)N1CCN(c2cccc(Cl)c2)CC1 3.46%
CCOc1ccc2nc(N(Cc3cccnc3)C(=O)c3ccco3)sc2c1 -10.5%
CCOc1ccccc1N(CC)C(=O)Cn1ncc2c1-c1ccccc1OC2 -33.1%
CCOc1ccc(NC(=O)CSc2nc(-c3ccccc3)c3cc(OCC)ccc3n2)cc1 -0.217%
COc1ccc(CNC(=O)c2cnc3sc4cc(OC)ccc4n3c2=O)cc1 -12.3%
O=C(NCc1ccccc1Cl)C(=O)NCC(c1ccc2c(c1)OCO2)N1CCOCC1 (configuration not stated) -10.1%
COc1ccc(CNC(=O)CCS(=O)(=O)c2cc3c4c(c2)CCN4C(=O)CC3)cc1OC -11.3%
CCCSc1ncc(Cl)c(C(=O)NCc2ccc(C)cc2)n1 -8.55%
Cc1c(C(=O)N2CCCC2)oc2c1-c1nn(CC(=O)NCc3ccccc3F)cc1CC2 3.48%
COc1ccc(C2C(C(=O)Nc3cccnc3)=C(C)Nc3nc(-c4ccc(OC)c(OC)c4)nn32)cc1 (configuration not stated) -7.54%
CCOC(=O)c1c(C)[nH]c(CCC(=O)NCc2cc(Br)ccc2OC)c1C -33.6%
Cc1ccc(S(=O)(=O)c2nnn3c2nc(N(C)Cc2ccccc2)c2cc(Cl)ccc23)cc1C 1.25%
Cc1sc(NC(=O)C2c3ccccc3Oc3ccccc32)c(C(=O)OC(C)C)c1C -6.34%
COc1ccc(-c2nc(CSCC(=O)NCCc3ccc(OC)c(OC)c3)c(C)o2)cc1 -4.37%
CC(C)NC(=O)C1=CC(c2ccc3c(c2)OCO3)=NS(=O)(=O)N1C -17.2%
COc1ccccc1CNC(=O)c1cc2cccc3c2n1CCS3 -13.7%
CCN(CC)C(=O)c1sc2c(c1C)c(=O)n(-c1ccccc1)c(=O)n2CC(=O)N(CC)c1cccc(C)c1 -8.46%
COc1cc(C(=O)Nc2cc(C)c(O)c(-c3nc4cc(Cl)ccc4o3)c2)cc(OC)c1OC -9.83%
CC(CCc1ccc2c(c1)OCO2)NN (configuration not stated) -9.51%
Cc1ccc(CNC(=O)c2ccc3c(c2)NC(=O)C(CS(=O)(=O)Cc2cccc(C)c2)N3)cc1 (configuration not stated) -20.7%
COc1cc(NC(=O)CCS(=O)(=O)c2ccc(Br)cc2)cc(OC)c1 -14.2%
CCCCN(C)C(=O)CN1C(=O)c2cccnc2Oc2ccc(Cl)cc21 -9.63%
CN(C(=O)CSc1nncn2c1cc1occc12)c1ccccc1 -21.1%
CCCOc1ccc(C(=O)N(Cc2ccc(Cl)cc2)Cc2ccco2)cc1 -2.49%
Cc1cn2c(=O)cc(COC(=O)COc3ccc(C)c(C)c3)nc2s1 -23.5%
Cc1c(C(=O)N2CCC(C(=O)Nc3ccc(F)c(Cl)c3)CC2)sc2nc[nH]c(=O)c12 26.2%
Cc1ccc(NC(=O)Cn2c(=O)ccc3cc(S(=O)(=O)N4CCCC4)ccc32)cc1C -4.5%
O=C(NCc1cccs1)c1ccc2c(c1)sc1nc(-c3ccccc3)cn12 -9.8%
CC(C)c1ccc(-c2noc(SCC(=O)N3CCN(c4ccccc4F)CC3)n2)cc1 -14.7%
COc1ccc(Cn2ccn(CC(=O)Nc3cc(C)ccc3C)c(=O)c2=O)cc1 -12.5%
